# Source: PubChem BioAssay AID904 (National Center for Advancing Translational Sciences (NCATS), 2007)
# In all, about 55,000 compounds went through this assay and about 530 (0.96%) were called active. This list was built around the results that the source calls inconclusive (neither active nor inactive); the mix of calls is not that of the screen. The call rests on the fitted dose curve; in most records, active means well fitted cell-killing curve with a large enough effect; inconclusive means small, poorly fitted or top-dose-only effect; inactive means no such curve, though single readings can be large or run the other way. Potencies beside an inconclusive call are fits to weak or partial responses and may not hold up.
# Assay: qHTS Screen for Compounds that Selectively Target Cancer Cells with p53 Mutations: Cytotoxicity of p53 Null Cells at the Nonpermissive Temperature; further: nearly all actives have a fitted effect of over 50% in size;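 on activity, negative = cell killing: 0% = DMSO only and -100% = full killing by 100 µM tamoxifen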
# Conditions: H1299 p53-null (neo) cells, 39C, ATPlite viability, 24 h; activity, negative = cell killing: at 46.1 µM (top of the series)
# Summary of the method: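 Concentration-response (up to 46 uM) was run for 24 h at the nonpermissive 39C on H1299-p53A138V or H1299-neo cells. ATP content was measured with ATPlite luminescence. AC50 values were Hill-modeled after normalizing between DMSO and 100 uM tamoxifen killing.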
# Potency means the concentration at half of the fitted maximal effect; tags describe the fitted curve by direction and shape.
Structure (SMILES),Potency,"activity, negative = cell killing"
CCC(Sc1nnc2c(n1)[nH]c1ccccc12)C(=O)Nc1ccccc1OC (stereo not given),"inconclusive: 12.6 µM [cytotoxic, single point]",–
COc1cc2nc(SCC(=O)Nc3ccccc3C)n3nc(CCn4c(C)nc5ccccc54)nc3c2cc1OC,"inconclusive: 3.16 µM [cytotoxic, partial curve]",–
CN1CCN(C(CNS(=O)(=O)c2ccc(Cl)cc2)c2cccnc2)CC1 (stereo not given),–,inactive: 21.1%
Cc1ccc(CNC(=O)c2ccc(Cn3c(SCc4ccc(F)cc4)nc4cccnc43)cc2)o1,"inconclusive: 11.2 µM [cytotoxic, partial curve]",–
Cc1ccccc1/C=C1\CCCc2ccccc2C1=O,"inconclusive: 12.6 µM [cytotoxic, single point]",–
COc1ccc2c(c1)-c1nc(NC(=O)c3cccc(Br)c3)sc1CC2,"inconclusive: 0.0501 µM [cytotoxic, full curve, poor fit]",–
CCOc1nc(-c2ccccc2)ccc1-c1noc(-c2ccc(C)cc2)n1,"inconclusive: 7.94 µM [cytotoxic, partial curve, poor fit]",–
O=C(NCCc1ccccc1)c1ccc2c(c1)N(Cc1ccc(F)cc1Cl)C(=O)CS2,–,inactive: 3.84%
Cc1cn2c(=O)cc(COc3ccccc3NC(=O)c3ccc(C(C)(C)C)cc3)nc2s1,"inconclusive: 12.6 µM [cytotoxic, partial curve]",–
CCCCN(C)CCCNC(=O)Cn1ncc2c3ccccc3n(Cc3ccccc3F)c2c1=O,"inconclusive: 31.6 µM [cytotoxic, single point]",–
CC(C)c1cnc2c(c1SCc1cccc(F)c1)c(=O)n(C)c(=O)n2C,"inconclusive: 0.0158 µM [cytotoxic, full curve, poor fit]",–
O=C(CCS(=O)(=O)c1ccc(Br)cc1)Nc1ccc(Cl)c(C(F)(F)F)c1,"inconclusive: 12.6 µM [cytotoxic, partial curve]",–
COCCNC(=O)c1nc2c(nnn2Cc2cc(C)ccc2C)c(=O)[nH]1,"inconclusive: 0.0158 µM [cytotoxic, full curve, poor fit]",–
Cc1ccc2nc(-c3c[nH]c4ccccc34)c(Nc3ccccc3C)n2c1,"inconclusive: 31.6 µM [cytotoxic, single point]",–
Cc1nn(-c2ccc(F)cc2)c(-n2cccc2)c1C(=O)NCCCN1CCN(c2cccc(Cl)c2)CC1,"inconclusive: 11.2 µM [cytotoxic, partial curve]",–
CCOC(=O)c1sc2ccccc2c1S(=O)(=O)N1CCN(c2cccc(OC)c2)CC1,–,inactive: 7.32%
CCn1c(=O)cc(SCC(=O)NCc2ccccc2OC)c2ccccc21,"inconclusive: 0.158 µM [cytotoxic, full curve, poor fit]",–
CCc1ccc(S(=O)(=O)Nc2cccc(-c3ccc(N4CCC(C)CC4)nn3)c2)s1,active: 12.6 µM,–
CSc1ncc(Cl)c(C(=O)Nc2ccc(S(=O)(=O)N3CCCC(C)C3)cc2)n1 (stereo not given),"inconclusive: 11.2 µM [cytotoxic, single point]",–
COc1cc(NC(=O)C2CCCN(S(=O)(=O)c3ccc4c(c3)CCCC(=O)N4)C2)cc(OC)c1 (stereo not given),"inconclusive: 7.94 µM [cytotoxic, partial curve]",–
CCCN(CCC)c1nc(-c2ccccc2F)nc2ccccc12,–,inactive: -6.46%
O=C(Nc1ccc(F)cc1F)c1cc2c(=O)n3ccccc3nc2s1,–,inactive: 15.4%

Structure (SMILES),Potency,"activity, negative = cell killing"
COc1ccc(CN(C(=O)c2cc3ccccc3oc2=O)C2CCS(=O)(=O)C2)cc1 (stereo not given),"inconclusive: 0.0794 µM [cytotoxic, full curve, poor fit]",–
CCC(C)(C)NS(=O)(=O)c1cc(-c2cc(C)no2)ccc1C,"inconclusive: 11.2 µM [cytotoxic, partial curve, poor fit]",–
CCn1nnc(NC(=O)c2sc3ccccc3c2Cl)n1,"inconclusive: 12.6 µM [cytotoxic, single point]",–
CCOc1ccccc1CN1CCc2nc(N3CCN(c4ccccc4F)CC3)ncc2C1,–,inactive: 3.24%
COc1ccc(-c2nc(C)c(CCNC(=O)C(=O)Nc3ccccc3C#N)s2)cc1OC,–,inactive: 14.9%
COc1ccc(-n2ncc3c(NCC(C)C)ncnc32)cc1,"inconclusive: 12.6 µM [cytotoxic, partial curve]",–
O=C(NCCc1csc(-c2ccc(F)cc2)n1)c1c(F)cccc1Cl,–,inactive: 0.834%
CC(C)CSc1oc(-c2ccco2)nc1S(=O)(=O)c1ccc(Br)cc1,–,inactive: 35.4%
CCOc1ccc(S(=O)(=O)N(C(=O)c2ccncc2)c2ccc3oc(C)c(C(=O)OC)c3c2)cc1,"inconclusive: 12.6 µM [cytotoxic, partial curve]",–
CCOC(=O)c1sc2nc(CN3CCN(c4cccc(C(F)(F)F)c4)CC3)[nH]c(=O)c2c1C,"inconclusive: 0.0501 µM [cytotoxic, partial curve]",–
CCn1cc(C(=O)N2CCN(c3ccc(OC)cc3)CC2)c(=O)c2cc(S(=O)(=O)N(C)C3CCCCC3)ccc21,"inconclusive: 10 µM [cytotoxic, single point]",–
Cc1ccc(-c2nc3ccccc3[nH]2)cc1NC(=O)COc1cccc(C)c1C,"inconclusive: 31.6 µM [cytotoxic, single point]",–
CCOc1ccc(-c2cn3c(n2)sc2cc(C(=O)NCCc4ccc(OC)c(OC)c4)ccc23)cc1,"inconclusive: 31.6 µM [cytotoxic, single point]",–
O=C(COc1ccc(Cl)cc1)NCCc1csc(-c2ccc(F)cc2)n1,"inconclusive: 0.316 µM [cytotoxic, full curve, poor fit]",–
O=C(Nc1ccccc1F)c1ccc(-c2ccccc2)s1,"inconclusive: 12.6 µM [cytotoxic, partial curve]",–
COc1ccc(NC(=O)C2CCCN(S(=O)(=O)c3cccs3)C2)cc1 (stereo not given),–,inactive: -4.11%
Fc1ccc(Cc2cn3cc(-c4ccc(Cl)cc4)nc3s2)cc1,"inconclusive: 0.0794 µM [cytotoxic, full curve, poor fit]",–
Cc1ccccc1NC(=O)c1ccc(F)c(S(=O)(=O)N(C)C2CCCCC2)c1,–,inactive: -2.11%
O=C1C2=C(Nc3ccccc3SC2c2ccccc2C(F)(F)F)c2ccccc21 (stereo not given),"inconclusive: 20 µM [cytotoxic, single point]",–
Cc1cc(C)n(-c2nnc(Nc3cc(Cl)ccc3C)c3ccccc23)n1,–,inactive: 10.4%
CCCCC(=O)OC1=C(C(=O)c2ccccc2)N(C)S(=O)(=O)c2ccccc21,"inconclusive: 31.6 µM [cytotoxic, single point]",–
O=C(NCC(c1cccnc1)N1CCc2ccccc2C1)C(=O)Nc1ccccc1 (stereo not given),–,inactive: -9.68%

Structure (SMILES),Potency,"activity, negative = cell killing"
CCCCC(=O)OC1=C(C(=O)c2ccccc2)N(CC)S(=O)(=O)c2ccccc21,"inconclusive: 31.6 µM [cytotoxic, single point]",–
Cc1ccc(Cn2c(C(=O)O)c(CNCc3cccs3)c3ccc(C)cc32)cc1,–,inactive: -23.3%
COc1ccc(NC(=O)c2cc3cc(C)ccc3n2C)cc1,–,inactive: -7.99%
COc1ccc(C(=O)Nc2c(C(=O)c3ccccc3)oc3ccccc23)cc1,"inconclusive: 0.501 µM [cytotoxic, full curve, poor fit]",–
COc1ccc(CNC(=O)c2cc(-c3ccc(C)c(C)c3)n[nH]2)cc1,"inconclusive: 0.0501 µM [cytotoxic, full curve]",–
Cc1ccc(-c2nc3ccc(Cl)cn3c2Nc2ccc3c(c2)OCCO3)s1,"inconclusive: 6.31 µM [cytotoxic, partial curve]",–
O=C(Nc1c(C(=O)Nc2cccc(F)c2)oc2ccccc12)c1cc2ccccc2o1,"inconclusive: 12.6 µM [cytotoxic, single point]",–
CCOc1ccc(/C=C/c2nc(C#N)c(Nc3ccc(OC)cc3)o2)cc1,–,inconclusive: -34.8% [cytotoxic]
COc1ccc(N2CCN(C(=O)NCc3noc4ccccc34)CC2)cc1,"inconclusive: 0.398 µM [cytotoxic, partial curve, poor fit]",–
CCOc1ccc(N2CC(NC(=O)Cc3ccccc3)CC2=O)cc1 (stereo not given),"inconclusive: 0.355 µM [cytotoxic, full curve, poor fit]",–
CCn1c(=O)c2cc(C(=O)NCCCN(C)Cc3ccccc3)sc2c2ccccc21,"inconclusive: 11.2 µM [cytotoxic, partial curve, poor fit]",–
O=C(Nc1c(C(=O)Nc2cccc(C(F)(F)F)c2)oc2ccccc12)c1cc(=O)c2ccccc2o1,–,inactive: 14.3%
CC1=C(C(=O)Nc2ccc(C)cc2C)C(c2cccn2C)n2ncnc2N1 (stereo not given),"inconclusive: 0.0079 µM [cytotoxic, full curve, poor fit]",–
COc1ccc(CCNC(=O)c2cnc3sc(N4CCC(C)CC4)nn3c2=O)cc1OC,–,inactive: -23.9%
FC(F)(F)c1cccc(-c2nnn3c2nc(NC2CCCCC2)c2ccccc23)c1,"inconclusive: 15.8 µM [cytotoxic, single point]",–
Cc1c(C(=O)Nc2cccc(C#N)c2)sc2nc3n(c(=O)c12)CCCCC3,"inconclusive: 0.1 µM [cytotoxic, full curve]",–
CCc1ccc(S(=O)(=O)c2nnn3c2nc(N2CCC(C(N)=O)CC2)c2cc(Cl)ccc23)cc1,"inconclusive: 35.5 µM [cytotoxic, single point]",–
COC(=O)c1ccc(NC(=O)NC(C)c2c(-n3cccc3)sc(C)c2C)cc1 (stereo not given),"inconclusive: 22.4 µM [cytotoxic, single point]",–
COc1ccc2c(c1)CC(C(=O)Nc1ccc(OC)cc1OC)CO2 (stereo not given),–,inactive: 3.88%
CCOc1ccc(OCC)c(Nc2nc3ccc(C(=O)c4ccccc4)cc3n3cnnc23)c1,"inconclusive: 3.98 µM [cytotoxic, single point]",–
O=C(NCc1cccs1)c1cc(S(=O)(=O)N2CCCCC2)ccc1Cl,"inconclusive: 4.47 µM [cytotoxic, full curve, poor fit]",–
